Measurements as given in PubChem BioAssay AID1159614 (National Center for Advancing Translational Sciences (NCATS), 2016).
Among all 45,000 compounds or so, about 65 (0.1%) were called active. The call rests on the fitted dose curve; in most records, active means well fitted activation curve with a large enough effect; inconclusive means small, poorly fitted or top-dose-only effect; inactive means no such curve, though single readings can be large or run the other way. The list shows a part of the results.

Molecular target: Galactocerebrosidase (Homo sapiens) (UniProt P54803)
Assay: A Novel Cell-Based Assay to Identify Small Molecules for B -Galactocerebrosidase; further: 0% is about no effect; nearly all actives have a fitted effect of over 65% in size
Conditions: 145M-Twi-hGALC-G270D cells (Twitcher mouse brain line with human GALC G270D), HMU-beta-Gal fluorescence, 48 h; series mostly up to 57.5 µM; activation: at the top concentration
Outline: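 Brain-derived Twitcher mouse 145M-Twi cells stably expressing human GALC-G270D or wild-type GALC, treated live, then residual GALC activity read by fluorescence of HMU-b-Gal substrate (0.1 mM final) in citrate-phosphate buffer pH 5.2 with sodium taurocholate. Signal increase indicates enhancement.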

UniProt P54803, sequence (P54803 whole entry, looked up): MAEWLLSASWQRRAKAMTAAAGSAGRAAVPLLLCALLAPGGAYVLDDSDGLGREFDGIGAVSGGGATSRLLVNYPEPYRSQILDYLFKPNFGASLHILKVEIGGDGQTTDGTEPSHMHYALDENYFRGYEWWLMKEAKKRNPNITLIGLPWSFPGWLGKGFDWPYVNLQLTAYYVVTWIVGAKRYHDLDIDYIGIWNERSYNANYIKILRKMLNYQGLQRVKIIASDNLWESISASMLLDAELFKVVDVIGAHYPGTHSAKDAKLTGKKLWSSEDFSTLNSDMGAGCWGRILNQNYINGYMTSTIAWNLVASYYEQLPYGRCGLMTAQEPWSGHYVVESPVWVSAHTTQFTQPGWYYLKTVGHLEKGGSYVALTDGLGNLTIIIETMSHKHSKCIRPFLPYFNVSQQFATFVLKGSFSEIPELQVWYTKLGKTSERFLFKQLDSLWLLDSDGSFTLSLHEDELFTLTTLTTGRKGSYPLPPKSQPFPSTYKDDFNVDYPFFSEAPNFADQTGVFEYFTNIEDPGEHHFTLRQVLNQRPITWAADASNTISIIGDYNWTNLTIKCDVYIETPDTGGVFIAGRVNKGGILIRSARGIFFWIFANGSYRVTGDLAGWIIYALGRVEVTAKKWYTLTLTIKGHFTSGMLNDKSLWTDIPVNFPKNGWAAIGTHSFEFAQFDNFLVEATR

activation, inactive:
CCC(C(=O)OCc1cc(=O)n2nc(C)sc2n1)c1ccccc1 (configuration not stated) -3.14%, Cc1cccc(-c2noc(CN(C3CCCCC3)S(=O)(=O)c3ccc(F)cc3)n2)c1 -12.2%, COc1ccc(CNC(=O)CN(c2ccc(C(C)C)cc2)S(=O)(=O)c2c(C)nn(C)c2C)cc1 -19%, COc1ccc(NC(=O)CSc2nc3ccccc3nc2N2CCC(C)CC2)cc1 -14.3%, COc1ccccc1OCC(O)COC(N)=O (configuration not stated) -39.5%, O=C(CSC1=Nc2ccccc2N=C(c2ccc(F)cc2)C1)Nc1cccc(C(F)(F)F)c1 -30.2%, CCOC(=O)C1CCCN(C(=O)C2CCN(S(=O)(=O)c3c(C)noc3/C=C/c3ccccc3F)CC2)C1 (configuration not stated) -5.48%, Cc1cc(C)c(C)c(OCC(=O)Nc2ccc(S(=O)(=O)Nc3nc(C)cc(C)n3)cc2)c1 -10.4%, Cc1ccccc1OCC(=O)OCc1cc(=O)n2nc(C3CC3)sc2n1 -11.7%, CCC(=O)N1CCc2cc(Br)cc(S(=O)(=O)CCC(=O)N3CCN(c4ccc(F)cc4)CC3)c21 -7.73%, COc1ccccc1NC(=O)CCn1nc(-c2ccccc2OC)c2c(C)cc(C)nc21 -24.8%, Cc1ccccc1NC(=O)Nc1nnc(N2CCCCCC2)s1 -4.39%, COc1ccc(CC(=O)NCCc2sc3nc(-c4ccc(OC)cc4)nn3c2C)cc1 -32%, COc1cccc(N2CCN(C(=O)C3Cc4ccccc4N3C(C)=O)CC2)c1 (configuration not stated) -9.87%, O=C(C1CCC1)N1CCCc2cc(S(=O)(=O)N3CCN(c4ccccc4)CC3)ccc21 -23.7%, CCc1ccc(OCc2cc(=O)n3c4c(sc3n2)CCCC4)cc1 -3.78%, CCCN(CCC)CCCNC(=O)c1cn(CC)c2ccc(S(=O)(=O)N(C)C3CCCCC3)cc2c1=O -5.4%, Cc1ccc(S(=O)(=O)c2nnn3c2nc(NC(C)C)c2sccc23)cc1 -9.24%, Cc1cccc(-c2nc3ccccc3n2Cc2ccccc2)c1 -18.6%, CCOC(=O)c1c(C)[nH]c(CCC(=O)Nc2c(C)cccc2CC)c1C -8.52%, CCNc1ncnc2c1nnn2C -18.7%, CCOC(=O)N1CCc2c(sc(NCc3cccc(F)c3)c2C(=O)Nc2ccc(OC)cc2OC)C1 -22.4%, CCC(=O)Nc1ccccc1-c1nc2ccccc2n(CC(=O)c2ccc(Cl)cc2)c1=O -5.51%, COc1ccccc1NC(=O)C1=C(C)Nc2nc(CCCO)nn2C1c1cccc(O)c1 (configuration not stated) -8.4%, Nc1c2c(nc3ccccc13)CCCC2O (configuration not stated) -7.3%, COc1ccc2c(Sc3ccc(C)cc3)c(C(=O)NCc3ccc(F)cc3)[nH]c2c1 -8.53%, COc1cc(C2CC(=O)c3cnc(N4CCN(CCO)CC4)nc3C2)cc(OC)c1OC (configuration not stated) -14.5%, Cn1c(=O)c(=O)n(C)c2cc(S(=O)(=O)N3CCN(c4ccc(F)cc4)CC3)ccc21 -0.856%, O=C(Cn1cc(S(=O)(=O)N2CCCC2)c(S(=O)(=O)N2CCCC2)c1)Nc1ccccc1 -14.7%, O=C(Nc1cccc(NC(=O)c2ccccc2F)c1)c1ccccc1 -14.5%, CC(C)c1ccc(NC(=O)CC2NCCNC2=O)cc1 (configuration not stated) -8.42%, O=C(CSc1nc2c(oc3ccccc32)c(=O)n1-c1ccccc1)Nc1ccccc1F -3.26%, CCCC(=O)Nc1cc(C(=O)NCc2ccccc2)ccc1S(=O)(=O)c1ccc(Cl)cc1 -13.5%, CCOC(=O)c1ccc(N2C(=O)c3n[nH]c(-c4ccco4)c3C2c2ccc(OCC)cc2)cc1 (configuration not stated) -18%, Cc1ccc(S(=O)(=O)N2CCCc3cc(NS(=O)(=O)c4cc(F)ccc4F)ccc32)cc1 -5.94%, O=C(CCCn1c(=O)c2ccccc2n(Cc2cccc(Cl)c2)c1=O)NCCc1ccc(Cl)cc1 6.31%, CCn1c(=O)n(-c2ccc(F)cc2)c(=O)c2sc3ccccc3c21 -15.6%, CCOC(=O)c1c(Nc2ccc(F)cc2)nnc(-c2ccccc2)c1-c1ccccc1 -40.3%, CC(C)(C)OC(=O)N1CCC(c2c(C(=O)N3CCN(c4ccccc4)CC3)cnn2-c2ccccc2)CC1 1.56%, COc1ccc(CCNC(=O)c2ccc3c(c2)N(Cc2cc(C)ccc2C)C(=O)c2ccccc2S3=O)cc1OC (configuration not stated) -4.21%, CCCCOc1ccc(CNC(=O)Cc2ccc(NC(=O)N3CCCCc4ccccc43)cc2)cc1 -0.939%, COc1ccc(-c2nc(SCC(=O)N3CCN(c4ccc(F)cc4)CC3)n[nH]2)cc1 12.4%, CC(=O)N1CCC2(CC1)OC(=O)C(C)=C2C(=O)Nc1cc(C)ccc1C -11.8%, COC(=O)c1sc2cccc(F)c2c1S(=O)(=O)Nc1ccc(N(C)C)cc1 -3.04%, Cc1cc(Br)ccc1NC(=O)Cn1cnc2sc(C)c(S(=O)(=O)N3CCN(C)CC3)c2c1=O -5.47%, CCCN(C(=O)c1cc2ccc3cccnc3c2[nH]1)c1ccc(F)cc1 -5.69%, O=C(c1ccccc1Cl)N(Cc1ccco1)c1ccccn1 -9.01%, COc1ccc(Br)c2c1-c1nc(NC(=O)c3ccccc3F)sc1C2 3.56%, CCCC(=O)Nc1ccc(O)c(C(C)=O)c1 -9.85%, COC(=O)c1ccccc1NC(=O)c1ccc(COc2cc(C)cc(C)c2)o1 -28.4%, COc1ccc(CCCc2nnc(SCC(=O)Nc3cc(C)ccc3C)o2)cc1 -22.5%, CCc1ccc(-c2[nH]nc3nc(-c4ccc(OC)cc4)cc(C(=O)NCCCOC)c23)cc1 -22.2%, COc1ccc(Cl)cc1NC(=O)Cn1c(=O)n(Cc2cccs2)c(=O)c2cccnc21 -14.6%, COc1ccc(CNC(=O)Cc2c(C)c3c(cc(C)c4c(C)coc43)oc2=O)cc1OC -8.2%, CCOC(=O)c1cc(-c2ccc(C)cc2)n(CC(=O)Nc2ccccc2F)c1C -9.82%, CCOc1ccc(NC(=O)CCn2c(=O)c3cccn3c3cccnc32)cc1 -7.89%, Cc1nn(CC(=O)NCc2ccc(N(C)C)cc2)c(=O)c2c(C)n(-c3ccc(Cl)cc3)nc12 0.431%, Cc1nc2ccc(S(=O)(=O)N(CC(=O)Nc3cccc(Cl)c3)Cc3ccccc3)cc2s1 -0.971%, CCCN(CCC)C(=O)Cn1c(=O)n(-c2ccc(C)c(C)c2)c(=O)c2c3c(sc21)CCCCC3 -7.57%, Cc1cc(NC(=O)c2cc(-c3cccc(Cl)c3)on2)nn1Cc1ccc(Cl)cc1 -27.4%, CC1CCC(NC(=O)CCc2cn(Cc3ccccc3Cl)c3ccccc23)CC1 (configuration not stated) 1.4%, Cc1cc2nn(-c3ccccc3)nc2cc1NC(=O)COc1ccc(Cl)cc1 -3.43%, Cc1nn(-c2ccc(F)cc2)c(-n2cccc2)c1C(=O)N1CCN(c2ccccc2)CC1 -39.3%, CCOc1ccc(Cn2nnc(C(=O)Nc3cccc(SC)c3)c2N)cc1 6.19%, Cc1ccc(NC(=O)CSc2nnc(-c3cc4occc4n3C)n2-c2ccccc2C)c(Cl)c1 -15.9%, COc1ccc(NC(=O)CSC2=Nc3ccccc3C3=NC(CCC(=O)NCc4cccs4)C(=O)N23)cc1 (configuration not stated) -16.6%, O=C(NCCc1ccccc1)C1CCN(c2ncnc3c2nc2n3CCCCC2)CC1 -14.1%, Cc1ccc(C)c(Cn2c3ccccc3c3cnn(CC(=O)NC4CCC(C)CC4)c(=O)c32)c1 (configuration not stated) -2.07%, Cc1ncc(CO)c2c1Oc1nc(-c3ccc(F)cc3)nc(SCC(=O)N3CCCCC3)c1C2 -8.62%, Cc1ccc(CN2C(=O)N(c3ccc(F)cc3)C(=O)C2CC(=O)Nc2ccc(Cl)cc2)cc1 (configuration not stated) -13.1%, COc1cc(/C=C/c2nc(C#N)c(N3CCCCC3)o2)cc(OC)c1OC -18.9%, CCOc1ccc(-c2nonc2NC(=O)c2ccco2)cc1 -33.8%, CC1=C(C(=O)NCc2cccc(Br)c2)C2(CCCCC2)OC1=O -6.21%, CCCCOC(=O)/C(C#N)=C/c1ccc(-c2cccc(C(F)(F)F)c2)o1 -12.4%, CCOc1ccc(NC(=O)CSc2nc3c(oc4ccccc43)c(=O)n2-c2cc(C)cc(C)c2)cc1 -3.27%, Cc1nnc(N2CCC(C(=O)Nc3ccc(F)cc3)CC2)c2nn(-c3ccc(Cl)cc3)c(C)c12 -9.78%, Cc1ccc(C(=O)Nc2c(-c3ccccc3)nc3ccccn23)cc1 -9.2%, Cc1ccc(C2c3[nH]c4ccccc4c3CCN2C(=O)c2ccccc2Br)cc1 (configuration not stated) -4.06%, CCN(Cc1ccccc1)C(=O)Cn1cc(S(=O)(=O)Cc2cccc(Cl)c2)c2ccccc21 1.71%, Cc1ccc(O)c(NC(=O)c2ccc(Br)c(S(=O)(=O)N3CCCCC3)c2)c1 -21.3%, Cc1cc2c(cc1C)NC(CC(=O)Nc1ccccc1)C(=O)N2 (configuration not stated) 0.411%, Cc1ccccc1CSc1nc2cc(C(=O)NC3CCCC3)ccc2c(=O)n1Cc1ccccc1 -14.6%, COC(=O)CC1Oc2ccccc2-n2cc(-c3ccccc3)nc21 (configuration not stated) -4.8%, Cc1ccc(-n2nc(CO)c(C(=O)NC(C)CCCc3ccccc3)n2)cc1C (configuration not stated) -3.58%, CC1CCN(C(=O)CSc2c(C(C)C)cnc3c2c(=O)n(C)c(=O)n3C)CC1 8.98%, CCCSc1ccc2nc(NC(=O)OC)[nH]c2c1 -16.3%, O=C(CCCn1c(=O)c2cccn2c2ccc(F)cc21)NCc1ccc(Cl)cc1 -6.96%, CCc1ccc(NC(=O)C(=O)NCC(c2cccnc2)N2CCN(Cc3ccccc3)CC2)cc1 (configuration not stated) -25.1%, CCC(=O)Nc1ccc2nc(SCCOc3ccccc3)sc2c1 -0.49%, CC(=O)Nc1nonc1-c1nnc(SCC(=O)Nc2ccccc2)n1-c1ccccc1 -12.9%, CCCCOc1ccc(CNC(=O)c2ccc(NC(=O)N3CCCCc4ccccc43)cc2)cc1 -6.05%, CCOc1ccc(CNS(=O)(=O)c2ccc3[nH]c(=O)ccc3c2)cc1 -2.61%, CCn1c(C)c(C)c2cc(C(=O)NCCCN3CCCCC3)ccc21 8.95%, COc1ccccc1OC(C)C(=O)Nc1c(C(=O)c2ccc(Cl)cc2)oc2ccccc12 (configuration not stated) -0.0281%, Cc1ccc(C)c(N2CCN(Cc3nnc(-c4ccc5c(c4)OCO5)o3)CC2)c1 -23.7%, Cn1c(=O)oc2cc(S(=O)(=O)NC(Cc3ccccc3)C(=O)NCc3ccc(F)cc3)ccc21 (configuration not stated) -12.5%, CCC(=O)N1c2ccccc2CC1C(=O)NCCN1CCN(c2cccc(C(F)(F)F)c2)CC1 (configuration not stated) -12.5%
